Assay results as given in the supplement of paper PMC5499739.
Over roughly 16,000 sequences, “Z-score” has its median near -0.37; the highest 2% begin near 3.1. This is one part of the list.

These sequences were tested on RBM10 RRM1-ZnF-RRM2 (GST-tagged construct) (assay: RNAcompete 7-mer binding Z-score; higher = stronger binding preference).
Description: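 RNAcompete: 20 pmol GST-tagged RBM10 RNA-binding constructs were incubated with a designed RNA pool of about 241,000 sequences up to 41 nt (1.5 nmol) on glutathione beads for 30 min at 4 °C and washed. Bound RNAs were identified by microarray hybridisation. Each RNA 7-mer is scored by a one-sided Z-score of its enrichment, computed over probes that contain the 7-mer within longer pool sequences.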

Row | Sequence | RNAcompete 7-mer binding Z-score
1 | GAGUGUA | 1.12
2 | GGCCGGU | 0.279
3 | AGGGGCU | 1.07
4 | GCGUCGU | 0.213
5 | AAGUAAA | 0.0568
6 | UACAAGU | -0.256
7 | UGAUGUA | 0.0277
8 | AGUGCCG | -0.158
9 | ACGUUGA | -0.0197
10 | UGUAAAU | -0.246
11 | GUCGAAC | -0.173
12 | CCUAUAU | -0.799
13 | CGGCCCU | -0.715
14 | GUUAAGU | -0.0379
15 | AGGCUGC | -0.0962
16 | UCCCCUA | -0.734
17 | AAGUCAA | 0.0932
18 | UCUCCAA | -0.672
19 | CGGACCU | -0.632
20 | CUAAAUA | -0.497
21 | GUCCGUG | -0.154
22 | AGUAGUG | 1.35
23 | GAGCCAG | 0.0277
24 | CCUGGUG | -0.26

Row | Sequence | RNAcompete 7-mer binding Z-score
25 | GCCAGGG | 1.75
26 | UGGAAAU | 1
27 | CUCGGCU | -0.785
28 | CCGAUAU | -0.643
29 | CAUUGCG | -0.519
30 | UGUUGCG | -0.22
31 | AUUCUUC | -0.836
32 | AAAGACU | -0.402
33 | GACUGAA | -0.249
34 | GAUAGGC | 1.35
35 | UUCUGGG | 0.192
36 | CUAGCUA | -0.712
37 | CCUCCAA | -0.857
38 | UGGCGUG | 1.19
39 | UGUAACC | -0.435
40 | CGCCAUU | -0.941
41 | CCUACCA | -0.694
42 | CGAAAUA | -0.34
43 | CUUACGA | -0.752
44 | ACUGCCU | -0.978
45 | GCUACAG | -0.216
46 | CGAACUC | -0.719
47 | GGUAGUU | 0.847
48 | CUGCUCC | -0.897

Row | Sequence | RNAcompete 7-mer binding Z-score
49 | AAAAUUG | 0.0714
50 | GUCUCGG | 0.0859
51 | AGUACUC | -0.639
52 | CGCCGUG | -0.315
53 | UCGCCAU | -0.774
54 | GGGAGGG | 4.06
55 | UCGGCGA | 0.385
56 | AAUCAUC | -0.694
57 | AGCAGAA | 0.701
58 | AACCAAC | -0.621
59 | CUGACGG | 0.243
60 | AAGCAUU | -0.508
61 | CUCAUCU | -0.85
62 | UCUCACC | -0.85
63 | AAUUUUA | -0.723
64 | GGAGAUC | 0.993
65 | GUCUUAG | -0.46
66 | CACCGCU | -0.788
67 | UUUUCUG | -0.795
68 | UAGGAUG | 2.27
69 | UAAAACU | -0.533
70 | UCUUAUU | -0.803
71 | CGUCAUU | -0.646
72 | AAGUUCA | -0.519

Row | Sequence | RNAcompete 7-mer binding Z-score
73 | CGGGGAC | 1.71
74 | CAAGGCG | 1.49
75 | CCGGGAU | 0.661
76 | CCAUAGC | -0.737
77 | CAUGAGC | -0.337
78 | CGAGGUU | 0.727
79 | CGUAAGG | 0.844
80 | GCGUCAU | -0.413
81 | ACCUCUU | -1.01
82 | UUCCAAG | -0.42
83 | CCGAACU | -0.839
84 | AGAUUAG | 0.945
85 | UUGAACU | -0.584
86 | AAGACAG | 0.53
87 | AACUGGU | -0.0379
88 | GGCGGCG | 1.53
89 | GGAUUCC | -0.176
90 | CCCCUGA | -0.508
91 | CGUUUGG | 0.00944
92 | CUUGUAC | -0.854
93 | GAUAAUG | 0.807
94 | AACCGGG | 1.31
95 | CUUGUGC | -0.923
96 | UUAGGUG | 1.25

Row | Sequence | RNAcompete 7-mer binding Z-score
97 | AGUCCUC | -0.708
98 | CACGUAU | -0.413
99 | UGAGGCA | 1.31
100 | UGGUCAC | 0.13
101 | CCACACG | -0.5
102 | UACGUAG | 0.603
103 | CACCCGC | -0.694
104 | ACCCCUA | -0.741
105 | ACAUCUG | -0.668
106 | UCUAACG | -0.646
107 | UUCUCUG | -0.792
108 | UUACGGG | 1.11
109 | CCAACGG | 0.275
110 | ACAUCUA | -0.679
111 | ACAAAAU | -0.424
112 | UCACUAG | -0.373
113 | AACUGCC | -0.766
114 | UCUGGUG | -0.0161
115 | CAAGCGC | -0.326
116 | UGCCGGC | -0.581
117 | ACUAGCA | -0.409
118 | GCUAUAG | 0.315
119 | CGCGGGC | 0.825
120 | AAUAUUG | -0.202

Row | Sequence | RNAcompete 7-mer binding Z-score
121 | UAGCGUC | -0.449
122 | CUUGCCU | -0.985
123 | GGUUGCG | 1.41
124 | UACUCAG | -0.526
125 | GUCCAUA | -0.526
126 | AGCUGAA | 0.17
127 | ACUCCUU | -0.883
128 | CCAUUUA | -0.97
129 | CGAAUCG | -0.522
130 | ACAGUGG | 1.62
131 | CGCGCCG | -0.522
132 | UCCUUUC | -0.712
133 | AAAUCCC | -0.887
134 | AAGAACG | 0.257
135 | CAAGCUG | -0.511
136 | CAAUCCG | -0.511
137 | CCAAUGA | -0.409
138 | AUCUGGA | 0.0204
139 | AAGAAGG | 3.81
140 | AGGGACU | 1.09
141 | UGGUAGA | 1.89
142 | UAAAAGU | -0.0743
143 | ACUUCAC | -0.876
144 | GGUUCGA | 0.814

Row | Sequence | RNAcompete 7-mer binding Z-score
145 | GUGUGUU | 0.188
146 | CCUUGAC | -0.908
147 | GUUUACA | -0.413
148 | UUAGUAG | 0.363
149 | GAGCGAU | 0.658
150 | CAAUAUG | 0.0277
151 | AUCAUAG | -0.103
152 | AAGUUUG | -0.176
153 | CGCGGUU | 0.0495
154 | CGUAAGC | -0.235
155 | GGUCUAG | 0.0604
156 | CACCCAC | -0.504
157 | GGCUCUU | -0.632
158 | UUUGGAG | 0.924
159 | CAGUGCA | 0.166
160 | ACGAGCA | 0.13
161 | GUCCAUC | -0.548
162 | GGCGUCG | 1.01
163 | CACCCCA | -0.49
164 | UUCGAUC | -0.781
165 | GCGACAG | 0.709
166 | AAUGAUA | 0.17
167 | AGAGUAU | 0.283
168 | UACAGGA | 1.72

Row | Sequence | RNAcompete 7-mer binding Z-score
169 | UUGCAAC | -0.555
170 | GGUGCAU | 1.16
171 | UAUGGAU | 0.789
172 | ACGCCAU | -0.799
173 | CGCCACA | -0.85
174 | CCCACUU | -0.868
175 | UGUCAAG | -0.3
176 | AUACGAU | -0.144
177 | ACGAUAC | -0.413
178 | GGGCUGC | 1.14
179 | UGGGGUU | 2.78
180 | CCCAGGG | 0.348
181 | CGGCCGU | -0.267
182 | CAACAGU | -0.216
183 | GCUUCGU | -0.661
184 | AGUUGUC | -0.719
185 | CACUACU | -0.617
186 | CGAUGGG | 2.73
187 | CAGGUAC | 0.643
188 | UGCGGCA | 0.29
189 | ACCUGUA | -0.741
190 | UUGGUCA | -0.195
191 | GGGCGCU | 0.647
192 | UAAACCG | -0.38

Row | Sequence | RNAcompete 7-mer binding Z-score
193 | UACAGAA | -0.289
194 | UUAUAGG | 0.64
195 | AUACAAC | -0.18
196 | CACCUGU | -0.744
197 | CUUGGUA | -0.154
198 | UAAGUAC | -0.548
199 | GACAGUG | 0.989
200 | GGAUGAC | 1.43
201 | UUACCAC | -0.351
202 | CAGGGGG | 2.58
203 | UCAAACU | -0.737
204 | CUGAUCU | -0.941
205 | GUAACCU | -0.457
206 | UGACUUU | -0.825
207 | ACCGGUA | 0.279
208 | GUGUGGC | 1.61
209 | CAACGUG | 0.122
210 | GUGUUAG | 0.294
211 | AACCUAG | -0.391
212 | UUCCAAC | -0.737
213 | UCUGCCG | -0.759
214 | AAGAAAU | -0.213
215 | CCGUACU | -0.781
216 | GGCAGAC | 0.574

Row | Sequence | RNAcompete 7-mer binding Z-score
217 | GUAAUGC | 0.108
218 | ACGUCCC | -0.799
219 | GUACCGG | 0.72
220 | GAUACAU | 0.166
221 | AGCUGAC | -0.533
222 | CAGCGAC | 0.122
223 | UUAGUUC | -0.643
224 | UUAGAUU | -0.446
225 | CUUGGCC | -0.748
226 | GCUCUUU | -0.828
227 | CCACUAC | -0.683
228 | CUGCGAG | -0.00512
229 | UUCUCUU | -0.704
230 | AUGCACU | -0.537
231 | CUAGACA | -0.621
232 | AAAGUCC | -0.442
233 | AGUUUUA | -0.515
234 | AGUGGCG | 2.58
